The other results are listed elsewhere or left out.
Legend:
HSkMC = human skeletal muscle cells; test: cytotoxicity call (relative viability < 0.9); settings: 10 µM
HepG2 = test: cytotoxicity call (relative viability < 0.9); settings: 10 µM
S. aureus RN4220 = test: growth inhibition call (relative growth <= 0.2); settings: 50 µM

SMILES | cytotoxicity call (HSkMC) | cytotoxicity call (HepG2) | growth inhibition call (S. aureus RN4220)
C[C@H](CO)N1C[C@H](C)[C@@H](CN(C)S(=O)(=O)c2cn(C)cn2)Oc2c(NC(=O)CCCN(C)C)cccc2C1=O | inactive | inactive | inactive
OCCC12CC3CC(CC(C3)C1)C2 | inactive | inactive | inactive
C[C@H]1CN([C@@H](C)CO)C(=O)c2cccc(NC(=O)CCCCCC(=O)Nc3ccccc3N)c2O[C@@H]1CN(C)C(=O)Nc1ccccc1 | inactive | inactive | inactive
C[C@H]1CN([C@@H](C)CO)C(=O)c2cc(NC(=O)Nc3ccc4c(c3)OCO4)ccc2O[C@H]1CN(C)C(=O)Nc1cccc2ccccc12 | inactive | inactive | inactive
O[C@@H]1[C@@H](O)[C@H](Br)C=C[C@H]1O | inactive | inactive | inactive
CCC(=O)Nc1nc2[nH]c(COC)cc(=O)n2n1 | inactive | inactive | inactive
Cc1ccc(S(=O)(=O)N(C)C[C@H]2Oc3c(NC(=O)Nc4cccc5ccccc45)cccc3C(=O)N([C@@H](C)CO)C[C@@H]2C)cc1 | inactive | inactive | inactive
Cc1noc(C)c1NC(=O)Nc1cccc2c1O[C@H](CN(C)Cc1ccc(Cl)c(Cl)c1)[C@@H](C)CN([C@@H](C)CO)C2=O | inactive | inactive | inactive
Cc1ccc(S(=O)(=O)N(C)C[C@@H]2Oc3ccc(NC(=O)c4ccncc4)cc3CC(=O)N([C@H](C)CO)C[C@H]2C)cc1 | inactive | inactive | inactive
CC(=O)[C@@]12O[C@]3(COC[C@H](c4ccccc4)N3C1=O)[C@@H]1C(=O)N(C)C(=O)[C@@H]12 | inactive | inactive | inactive
CN1C2CCC1CC(OC(=O)c1c[nH]c3ccccc13)C2.Cl (stereo not given) | inactive | inactive | inactive
COC(=O)[C@H](Cc1ccccc1)N1CC2=CCCC=C[C@H]2[C@@H]1[C@@H](O)CCn1cc(-c2ccc(C(=O)NO)cc2)nn1 | inactive | inactive | inactive
Cc1ccc(S(=O)(=O)Nc2ccc3c(c2)C(=O)N([C@@H](C)CO)C[C@H](C)[C@H](CN(C)Cc2ccc(C(F)(F)F)cc2)O3)cc1 | inactive | inactive | inactive
C[C@H]1CN([C@@H](C)CO)C(=O)c2c(c3ccccc3n2C)-c2ccccc2CO[C@@H]1CN(C)Cc1cccc2c1OCCCO2 | inactive | inactive | inactive
C[C@@H]1CN([C@@H](C)CO)C(=O)c2cc(NS(=O)(=O)c3ccc(F)cc3)ccc2O[C@@H]1CN(C)CC1CC1 | inactive | inactive | inactive
Cc1noc(C)c1S(=O)(=O)N(C)C[C@@H]1Oc2c(NS(=O)(=O)c3ccc(F)cc3)cccc2C(=O)N([C@H](C)CO)C[C@@H]1C | inactive | inactive | inactive
C[C@@H]1CN([C@@H](C)CO)C(=O)c2cc(NC(=O)Nc3ccc(C(F)(F)F)cc3)ccc2O[C@@H](C)CCCCO[C@H]1CN(C)S(=O)(=O)c1ccccc1 | inactive | inactive | inactive
C[C@H]1CN([C@@H](C)CO)C(=O)Cc2cc(NC(=O)c3ccncc3)ccc2O[C@@H]1CN(C)S(=O)(=O)c1ccc(F)cc1 | inactive | inactive | inactive
C[C@@H]1CCCCO[C@H](CN(C)S(=O)(=O)c2ccc(Cl)cc2)[C@@H](C)CN([C@@H](C)CO)C(=O)c2cc(NC(=O)CCC(F)(F)F)ccc2O1 | inactive | inactive | inactive
C[C@@H]1CN([C@@H](C)CO)C(=O)Cc2cc(NS(C)(=O)=O)ccc2O[C@@H]1CN(C)Cc1ccc(C(F)(F)F)cc1 | inactive | inactive | inactive
COc1ccc(S(=O)(=O)N(C)C[C@@H]2Oc3ccc(NC(=O)c4ccncc4)cc3C(=O)N([C@H](C)CO)C[C@@H]2C)cc1 | inactive | inactive | inactive
C[C@@H]1CN([C@@H](C)CO)C(=O)c2cccc(NC(=O)NC3CCCCC3)c2O[C@@H]1CN(C)Cc1ccc(C(F)(F)F)cc1 | inactive | inactive | inactive
C[C@@H]1CN([C@H](C)CO)C(=O)c2cc(NC(=O)Cn3cnnn3)ccc2O[C@@H]1CN(C)Cc1ccc(Oc2ccccc2)cc1 | inactive | inactive | inactive
COc1ccc(S(=O)(=O)N(C)C[C@@H]2Oc3ccc(NS(=O)(=O)c4ccc(F)cc4)cc3CC(=O)N([C@@H](C)CO)C[C@H]2C)cc1 | inactive | inactive | inactive
O=C(Nc1ccc2c(c1)[C@H]1C[C@H](CC(=O)N3CCc4ccccc4C3)O[C@H](CO)[C@H]1O2)C1CCOCC1 | inactive | inactive | inactive

SMILES | cytotoxicity call (HSkMC) | cytotoxicity call (HepG2) | growth inhibition call (S. aureus RN4220)
COc1ccc(S(=O)(=O)N(C)C[C@H]2OCCCC[C@@H](C)Oc3ccc(NC(=O)Nc4ccccc4)cc3C(=O)N([C@@H](C)CO)C[C@H]2C)cc1 | inactive | inactive | inactive
C[C@@H]1CN([C@H](C)CO)C(=O)c2cc(NC(=O)Nc3ccc(C(F)(F)F)cc3)ccc2O[C@@H]1CN(C)Cc1ccc(Cl)c(Cl)c1 | active | active | inactive
COc1ccc(S(=O)(=O)N(C)C[C@@H]2Oc3c(NC(=O)Nc4c(C)noc4C)cccc3C(=O)N([C@H](C)CO)C[C@@H]2C)cc1 | inactive | inactive | inactive
CC(=O)OC[C@@H]1O[C@H](O[C@@H]2CC[C@]34C[C@]35CC[C@]3(C)[C@@H]([C@@H](C)[C@H]6C[C@@H](O)C(C)(C)O6)CC[C@@]3(C)[C@H]5CC[C@H]4[C@H]2C)[C@@H](O)[C@H](O)[C@@H]1O[C@H]1O[C@@H](CO)[C@@H](O[C@H]2O[C@@H](CO)[C@@H](O)[C@@H](O)[C@@H]2O)[C@@H](O[C@H]2O[C@@H](C)[C@@H](O)[C@@H](O)[C@@H]2O)[C@@H]1O | inactive | inactive | inactive
COc1ccc(S(=O)(=O)Nc2ccc3c(c2)C(=O)N([C@@H](C)CO)C[C@H](C)[C@@H](CN(C)C(=O)Nc2ccc(F)cc2)OCCCC[C@H](C)O3)cc1 | inactive | active | inactive
C[C@H](CO)N1C[C@H](C)[C@@H](CN(C)C(=O)Nc2ccc(F)cc2)Oc2c(NC(=O)c3nc4ccccc4s3)cccc2C1=O | inactive | inactive | inactive
C[C@H](CO)N1C[C@H](C)[C@@H](CN(C)Cc2ccc(Cl)c(Cl)c2)Oc2ccc(NS(=O)(=O)c3cccs3)cc2C1=O | inactive | inactive | inactive
COCC(=O)c1ccnn1C | inactive | inactive | inactive
C[C@@H]1CCCCO[C@@H](CN(C)Cc2ccc3c(c2)OCO3)[C@H](C)CN([C@H](C)CO)C(=O)c2cc(NC(=O)Nc3ccc(C(F)(F)F)cc3)ccc2O1 | active | active | inactive
Cc1noc(C)c1NC(=O)N(C)C[C@H]1OCCCC[C@@H](C)Oc2ccc(NS(=O)(=O)c3ccc(Cl)cc3)cc2C(=O)N([C@H](C)CO)C[C@H]1C | inactive | inactive | inactive
C[C@@H]1CCCCO[C@H](CN(C)CC2CCCCC2)[C@H](C)CN([C@H](C)CO)C(=O)c2cc(NS(=O)(=O)c3cccs3)ccc2O1 | inactive | inactive | inactive
C[C@H]1CCCCO[C@H](CN(C)C(=O)Nc2cccc3ccccc23)[C@@H](C)CN([C@@H](C)CO)C(=O)c2cc(NS(C)(=O)=O)ccc2O1 | inactive | inactive | inactive
CN1C(=O)c2cc(NC(=O)c3ccc(C(F)(F)F)cc3)ccc2OC[C@@H]2O[C@H](CC(=O)NC3Cc4ccccc4C3)CC[C@H]21 | inactive | inactive | inactive
COc1ccc(NC(=O)N(C)C[C@@H]2Oc3ccc(NC(=O)CCCCCC(=O)Nc4ccccc4N)cc3CC(=O)N([C@@H](C)CO)C[C@H]2C)cc1 | inactive | inactive | inactive
C[C@@H]1CCCCO[C@@H](CN(C)C(=O)c2ccncc2)[C@@H](C)CN([C@@H](C)CO)C(=O)c2cc(NS(=O)(=O)c3cn(C)cn3)ccc2O1 | inactive | inactive | inactive
COc1ccc(NC(=O)Nc2ccc3c(c2)C(=O)N([C@H](C)CO)C[C@@H](C)[C@@H](CN(C)Cc2ccc(Cl)c(Cl)c2)OCCCC[C@H](C)O3)cc1 | inactive | inactive | inactive
COCC(=O)Nc1ccc2c(c1)OC[C@H](C)N(C(=O)Cc1cccnc1)C[C@H](C)[C@H](OC)CN(C)C2=O | inactive | inactive | inactive
COc1ccc(NC(=O)Nc2ccc3c(c2)C(=O)N([C@@H](C)CO)C[C@H](C)[C@H](CN(C)Cc2ccc(Cl)c(Cl)c2)OCCCC[C@@H](C)O3)cc1 | inactive | inactive | inactive
CNC[C@H]1Oc2cc(C#CCN(C)C)ccc2S(=O)(=O)N([C@H](C)CO)C[C@H]1C | inactive | inactive | inactive
COCCOC(=O)N1C(=O)[C@@]2(c3cc(C#Cc4ccc(OC)cc4)ccc31)[C@H](C(N)=O)[C@H]1C(=O)O[C@H](c3ccccc3)[C@H](c3ccccc3)N1[C@@H]2c1ccccc1OCCO | inactive | inactive | inactive
C[C@H]1CN([C@@H](C)CO)C(=O)c2cccc(NC(=O)Nc3ccc4c(c3)OCO4)c2O[C@@H]1CN(C)S(C)(=O)=O | inactive | inactive | inactive
C[C@@H]1CN([C@H](C)CO)C(=O)c2cc(N(C)C)ccc2O[C@@H](C)CCCCO[C@@H]1CN(C)S(C)(=O)=O | inactive | inactive | inactive
C[C@H]1CN([C@@H](C)CO)C(=O)c2cc(C#CCN(C)C)cnc2O[C@@H]1CN(C)C(=O)Nc1cccc(F)c1 | inactive | inactive | inactive
C/N=C1/S[C@@H](CC(N)=O)C(=O)N1C | inactive | inactive | inactive
C[C@H]1CCCCO[C@H](CN(C)Cc2ccc3c(c2)OCO3)[C@@H](C)CN([C@@H](C)CO)C(=O)c2cc(NC(=O)Nc3cccc4ccccc34)ccc2O1 | inactive | active | inactive

Source: the antibiotic and cytotoxicity screens of Wong et al. (2023)
